Data on 31 molecules can be found in article PMC9911399, “Two distinct binding modes provide the RNA-binding protein RbFox with extraordinary sequence specificity”.

Positions count from the first letter of the chain named. The list shows a part of the results.

T1: RBFOX1 RRM RbFoxmut (Fox-RRM*) (Homo sapiens, UniProt Q9NWB1 109-208, R118D;E147R;N151S;E152T)
T1 sequence: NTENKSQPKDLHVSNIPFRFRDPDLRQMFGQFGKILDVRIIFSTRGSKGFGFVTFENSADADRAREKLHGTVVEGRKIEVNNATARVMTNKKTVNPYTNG

B1: UUUGGUA (DNA:RNA)
RNA: GGGAGACCGGAAUUCAGAUUGUCCUUUGGUAUUAAAUCCCGUCGUAGCCACCA
DNA 1: CAATCTGAATTCCGGTCTCCC
DNA 2: TGGTGGCTACGACGGGATT
B2: UACUUGA (DNA:RNA)
RNA: B1 RNA with U26A, U27C, G28U, G29U, U30G
DNA 1: CAATCTGAATTCCGGTCTCCC
DNA 2: TGGTGGCTACGACGGGATT
B3: CCAGCUG (DNA:RNA)
RNA: B1 RNA with U25C, U26C, U27A, G29C, A31G
DNA 1: CAATCTGAATTCCGGTCTCCC
DNA 2: TGGTGGCTACGACGGGATT
B4: GAAAAAC (DNA:RNA)
RNA: GGGAGACCGGAAUUCAGAUUGUCCGAAAAACUUAAAUCCCGUCGUAGCCACCA
DNA 1: CAATCTGAATTCCGGTCTCCC
DNA 2: TGGTGGCTACGACGGGATT
B5: GAGUGAA (DNA:RNA)
RNA: B4 RNA with A27G, A28U, A29G, C31A
DNA 1: CAATCTGAATTCCGGTCTCCC
DNA 2: TGGTGGCTACGACGGGATT
B6: UGGGCUC (DNA:RNA)
RNA: B1 RNA with U26G, U27G, G29C, A31C
DNA 1: CAATCTGAATTCCGGTCTCCC
DNA 2: TGGTGGCTACGACGGGATT
B7: GAUGGAA (DNA:RNA)
RNA: B1 RNA with U25G, U26A, U30A
DNA 1: CAATCTGAATTCCGGTCTCCC
DNA 2: TGGTGGCTACGACGGGATT
B8: UGGUGUC (DNA:RNA)
RNA: B1 RNA with U26G, U27G, G28U, A31C
DNA 1: CAATCTGAATTCCGGTCTCCC
DNA 2: TGGTGGCTACGACGGGATT
B9: ACACUGU (DNA:RNA)
RNA: B4 RNA with G25A, A26C, A28C, A29U, A30G, C31U
DNA 1: CAATCTGAATTCCGGTCTCCC
DNA 2: TGGTGGCTACGACGGGATT
B10: UGUGUGU (DNA:RNA)
RNA: B1 RNA with U26G, G29U, U30G, A31U
DNA 1: CAATCTGAATTCCGGTCTCCC
DNA 2: TGGTGGCTACGACGGGATT
B11: UCCGUCA (DNA:RNA)
RNA: B1 RNA with U26C, U27C, G29U, U30C
DNA 1: CAATCTGAATTCCGGTCTCCC
DNA 2: TGGTGGCTACGACGGGATT
B12: GCGCUGU (DNA:RNA)
RNA: B4 RNA with A26C, A27G, A28C, A29U, A30G, C31U
DNA 1: CAATCTGAATTCCGGTCTCCC
DNA 2: TGGTGGCTACGACGGGATT
B13: CUGGGCU (DNA:RNA)
RNA: B1 RNA with U25C, U27G, U30C, A31U
DNA 1: CAATCTGAATTCCGGTCTCCC
DNA 2: TGGTGGCTACGACGGGATT
B14: GAACAGG (DNA:RNA)
RNA: B4 RNA with A28C, A30G, C31G
DNA 1: CAATCTGAATTCCGGTCTCCC
DNA 2: TGGTGGCTACGACGGGATT
B15: UAGCUCG (DNA:RNA)
RNA: B4 RNA with G25U, A27G, A28C, A29U, A30C, C31G
DNA 1: CAATCTGAATTCCGGTCTCCC
DNA 2: TGGTGGCTACGACGGGATT
B16: CCAUGUG (DNA:RNA)
RNA: B1 RNA with U25C, U26C, U27A, G28U, A31G
DNA 1: CAATCTGAATTCCGGTCTCCC
DNA 2: TGGTGGCTACGACGGGATT
B17: CCAUAGA (DNA:RNA)
RNA: B4 RNA with G25C, A26C, A28U, A30G, C31A
DNA 1: CAATCTGAATTCCGGTCTCCC
DNA 2: TGGTGGCTACGACGGGATT
B18: ACGCGCC (DNA:RNA)
RNA: B4 RNA with G25A, A26C, A27G, A28C, A29G, A30C
DNA 1: CAATCTGAATTCCGGTCTCCC
DNA 2: TGGTGGCTACGACGGGATT
B19: UUUUCGA (DNA:RNA)
RNA: B1 RNA with G28U, G29C, U30G
DNA 1: CAATCTGAATTCCGGTCTCCC
DNA 2: TGGTGGCTACGACGGGATT
B20: GCCGUGG (DNA:RNA)
RNA: B4 RNA with A26C, A27C, A28G, A29U, A30G, C31G
DNA 1: CAATCTGAATTCCGGTCTCCC
DNA 2: TGGTGGCTACGACGGGATT
B21: CCCGCGU (DNA:RNA)
RNA: B1 RNA with U25C, U26C, U27C, G29C, U30G, A31U
DNA 1: CAATCTGAATTCCGGTCTCCC
DNA 2: TGGTGGCTACGACGGGATT
B22: UACCUGC (DNA:RNA)
RNA: B4 RNA with G25U, A27C, A28C, A29U, A30G
DNA 1: CAATCTGAATTCCGGTCTCCC
DNA 2: TGGTGGCTACGACGGGATT
B23: GGUCCAG (DNA:RNA)
RNA: B4 RNA with A26G, A27U, A28C, A29C, C31G
DNA 1: CAATCTGAATTCCGGTCTCCC
DNA 2: TGGTGGCTACGACGGGATT
B24: GACACGA (DNA:RNA)
RNA: B4 RNA with A27C, A29C, A30G, C31A
DNA 1: CAATCTGAATTCCGGTCTCCC
DNA 2: TGGTGGCTACGACGGGATT
B25: AGACUGG (DNA:RNA)
RNA: B4 RNA with G25A, A26G, A28C, A29U, A30G, C31G
DNA 1: CAATCTGAATTCCGGTCTCCC
DNA 2: TGGTGGCTACGACGGGATT
B26: UGUUAAG (DNA:RNA)
RNA: B4 RNA with G25U, A26G, A27U, A28U, C31G
DNA 1: CAATCTGAATTCCGGTCTCCC
DNA 2: TGGTGGCTACGACGGGATT
B27: CCCUAUU (DNA:RNA)
RNA: B4 RNA with G25C, A26C, A27C, A28U, A30U, C31U
DNA 1: CAATCTGAATTCCGGTCTCCC
DNA 2: TGGTGGCTACGACGGGATT
B28: AACGGGG (DNA:RNA)
RNA: B1 RNA with U25A, U26A, U27C, U30G, A31G
DNA 1: CAATCTGAATTCCGGTCTCCC
DNA 2: TGGTGGCTACGACGGGATT
B29: CGAAUUU (DNA:RNA)
RNA: B4 RNA with G25C, A26G, A29U, A30U, C31U
DNA 1: CAATCTGAATTCCGGTCTCCC
DNA 2: TGGTGGCTACGACGGGATT
B30: CCUUAUG (DNA:RNA)
RNA: B1 RNA with U25C, U26C, G28U, G29A, A31G
DNA 1: CAATCTGAATTCCGGTCTCCC
DNA 2: TGGTGGCTACGACGGGATT
B31: AACAUGA (DNA:RNA)
RNA: B4 RNA with G25A, A27C, A29U, A30G, C31A
DNA 1: CAATCTGAATTCCGGTCTCCC
DNA 2: TGGTGGCTACGACGGGATT

The assay has as its target T1, RBFOX1 RRM RbFoxmut (Fox-RRM*). In words: EMSA; HiTS-Eq, 1 nM pool, 10 min; buffer printed only for the single-RNA assays: 10 mM Tris pH 7.5, 150 mM NaCl, 3.4 mM EDTA, 0.001% NP-40, 30 C. The following applies: tags: His6 N-terminal (pET28a); label: 5' 32P. An outline of the steps: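 Purified wild-type or mutant RbFox RRM at increasing concentrations was equilibrated with 1 nM of 5′-radiolabelled RNA carrying 7 randomized nucleotides for 10 min in 50 µL. Unbound RNA was separated by 8% native PAGE and sequenced. Relative association constants came from read-count changes of each RNA species compared with the control reaction, normalised to the cognate motif.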
On the technique in general: A gel shift assay detects complexes by their altered migration in electrophoresis.
Turning to B1, the binding signal is 0.165 KA relative to UGCAUGU. Turning to B2, the binding signal is 0.112 KA relative to UGCAUGU.

In the case of B3, the binding signal was 0.118 KA relative to UGCAUGU. Then B4, with 0.0554 KA relative to UGCAUGU.

Take B5: the binding signal was 0.103 KA relative to UGCAUGU. Then B6, with 0.115 KA relative to UGCAUGU. Then B7, with 0.0962 KA relative to UGCAUGU. In the case of B8 it was 0.281 KA relative to UGCAUGU; in that of B9, 0.103 KA relative to UGCAUGU; in that of B10, 0.366 KA relative to UGCAUGU. Consider B11, for which the binding signal was 0.111 KA relative to UGCAUGU. In the case of B12 it was 0.109 KA relative to UGCAUGU; in that of B13, 0.0959 KA relative to UGCAUGU; in that of B14, 0.0612 KA relative to UGCAUGU. In the case of B15 it was 0.166 KA relative to UGCAUGU; in that of B16, 0.128 KA relative to UGCAUGU.

Consider B17, for which the binding signal was 0.122 KA relative to UGCAUGU. Then B18, with 0.147 KA relative to UGCAUGU; and B19, with 0.0466 KA relative to UGCAUGU; and B20, with 0.094 KA relative to UGCAUGU. Then B21, with 0.106 KA relative to UGCAUGU; and B22, with 0.0726 KA relative to UGCAUGU.

As to B23, the binding signal is 0.0861 KA relative to UGCAUGU.

As to B24, the binding signal is 0.0798 KA relative to UGCAUGU. For the molecule B25, the binding signal was 0.137 KA relative to UGCAUGU.

B26: the binding signal is 0.113 KA relative to UGCAUGU. In the case of B27 it was 0.0705 KA relative to UGCAUGU; in that of B28, 0.0892 KA relative to UGCAUGU; in that of B29, 0.0708 KA relative to UGCAUGU. Take B30: the binding signal is 0.119 KA relative to UGCAUGU. Then B31, with 0.0947 KA relative to UGCAUGU.
